Laboratory results reported in article PMC9911399, “Two distinct binding modes provide the RNA-binding protein RbFox with extraordinary sequence specificity”.
Changes are numbered by the printed parent chain; changes in the protein carry UniProt numbers. The list shows a part of the results.

T1: RBFOX1 RRM (Homo sapiens, UniProt Q9NWB1 109-208)
T1 sequence: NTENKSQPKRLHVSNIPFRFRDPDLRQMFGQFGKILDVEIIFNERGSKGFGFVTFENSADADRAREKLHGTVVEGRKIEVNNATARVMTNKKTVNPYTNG

B1: AAUAUUA (DNA:RNA)
RNA: GGGAGACCGGAAUUCAGAUUGUCCAAUAUUAUUAAAUCCCGUCGUAGCCACCA
DNA 1: CAATCTGAATTCCGGTCTCCC
DNA 2: TGGTGGCTACGACGGGATT
B2: UCACCUG (DNA:RNA)
RNA: B1 RNA with A25U, A26C, U27A, A28C, U29C, A31G
DNA 1: CAATCTGAATTCCGGTCTCCC
DNA 2: TGGTGGCTACGACGGGATT
B3: AUAAAGU (DNA:RNA)
RNA: B1 RNA with A26U, U27A, U29A, U30G, A31U
DNA 1: CAATCTGAATTCCGGTCTCCC
DNA 2: TGGTGGCTACGACGGGATT
B4: ACUGCAU (DNA:RNA)
RNA: B1 RNA with A26C, A28G, U29C, U30A, A31U
DNA 1: CAATCTGAATTCCGGTCTCCC
DNA 2: TGGTGGCTACGACGGGATT
B5: ACAUGAG (DNA:RNA)
RNA: B1 RNA with A26C, U27A, A28U, U29G, U30A, A31G
DNA 1: CAATCTGAATTCCGGTCTCCC
DNA 2: TGGTGGCTACGACGGGATT
B6: AAUAAAU (DNA:RNA)
RNA: B1 RNA with U29A, U30A, A31U
DNA 1: CAATCTGAATTCCGGTCTCCC
DNA 2: TGGTGGCTACGACGGGATT
B7: GAGGUGG (DNA:RNA)
RNA: B1 RNA with A25G, U27G, A28G, U30G, A31G
DNA 1: CAATCTGAATTCCGGTCTCCC
DNA 2: TGGTGGCTACGACGGGATT
B8: AUGUUCC (DNA:RNA)
RNA: B1 RNA with A26U, U27G, A28U, U30C, A31C
DNA 1: CAATCTGAATTCCGGTCTCCC
DNA 2: TGGTGGCTACGACGGGATT
B9: GGCAGUU (DNA:RNA)
RNA: B1 RNA with A25G, A26G, U27C, U29G, A31U
DNA 1: CAATCTGAATTCCGGTCTCCC
DNA 2: TGGTGGCTACGACGGGATT
B10: AGCCUCA (DNA:RNA)
RNA: B1 RNA with A26G, U27C, A28C, U30C
DNA 1: CAATCTGAATTCCGGTCTCCC
DNA 2: TGGTGGCTACGACGGGATT
B11: GUCGCAU (DNA:RNA)
RNA: GGGAGACCGGAAUUCAGAUUGUCCGUCGCAUUUAAAUCCCGUCGUAGCCACCA
DNA 1: CAATCTGAATTCCGGTCTCCC
DNA 2: TGGTGGCTACGACGGGATT
B12: CAGCGCG (DNA:RNA)
RNA: B1 RNA with A25C, U27G, A28C, U29G, U30C, A31G
DNA 1: CAATCTGAATTCCGGTCTCCC
DNA 2: TGGTGGCTACGACGGGATT
B13: CUACGGU (DNA:RNA)
RNA: B11 RNA with G25C, C27A, G28C, C29G, A30G
DNA 1: CAATCTGAATTCCGGTCTCCC
DNA 2: TGGTGGCTACGACGGGATT
B14: GAGAGCU (DNA:RNA)
RNA: B1 RNA with A25G, U27G, U29G, U30C, A31U
DNA 1: CAATCTGAATTCCGGTCTCCC
DNA 2: TGGTGGCTACGACGGGATT
B15: AAAGGCG (DNA:RNA)
RNA: B1 RNA with U27A, A28G, U29G, U30C, A31G
DNA 1: CAATCTGAATTCCGGTCTCCC
DNA 2: TGGTGGCTACGACGGGATT
B16: GAGUCAU (DNA:RNA)
RNA: B11 RNA with U26A, C27G, G28U
DNA 1: CAATCTGAATTCCGGTCTCCC
DNA 2: TGGTGGCTACGACGGGATT
B17: CCCAGGC (DNA:RNA)
RNA: B1 RNA with A25C, A26C, U27C, U29G, U30G, A31C
DNA 1: CAATCTGAATTCCGGTCTCCC
DNA 2: TGGTGGCTACGACGGGATT
B18: AUGAAAC (DNA:RNA)
RNA: B1 RNA with A26U, U27G, U29A, U30A, A31C
DNA 1: CAATCTGAATTCCGGTCTCCC
DNA 2: TGGTGGCTACGACGGGATT
B19: AGUCUUG (DNA:RNA)
RNA: B1 RNA with A26G, A28C, A31G
DNA 1: CAATCTGAATTCCGGTCTCCC
DNA 2: TGGTGGCTACGACGGGATT
B20: GUAGCAG (DNA:RNA)
RNA: B11 RNA with C27A, U31G
DNA 1: CAATCTGAATTCCGGTCTCCC
DNA 2: TGGTGGCTACGACGGGATT
B21: CAACCGG (DNA:RNA)
RNA: B1 RNA with A25C, U27A, A28C, U29C, U30G, A31G
DNA 1: CAATCTGAATTCCGGTCTCCC
DNA 2: TGGTGGCTACGACGGGATT
B22: CCAGGGC (DNA:RNA)
RNA: B11 RNA with G25C, U26C, C27A, C29G, A30G, U31C
DNA 1: CAATCTGAATTCCGGTCTCCC
DNA 2: TGGTGGCTACGACGGGATT
B23: CUGUCGG (DNA:RNA)
RNA: B11 RNA with G25C, C27G, G28U, A30G, U31G
DNA 1: CAATCTGAATTCCGGTCTCCC
DNA 2: TGGTGGCTACGACGGGATT
B24: AGACAGU (DNA:RNA)
RNA: B1 RNA with A26G, U27A, A28C, U29A, U30G, A31U
DNA 1: CAATCTGAATTCCGGTCTCCC
DNA 2: TGGTGGCTACGACGGGATT
B25: GUUCAAA (DNA:RNA)
RNA: B11 RNA with C27U, G28C, C29A, U31A
DNA 1: CAATCTGAATTCCGGTCTCCC
DNA 2: TGGTGGCTACGACGGGATT
B26: UCAAUGG (DNA:RNA)
RNA: B1 RNA with A25U, A26C, U27A, U30G, A31G
DNA 1: CAATCTGAATTCCGGTCTCCC
DNA 2: TGGTGGCTACGACGGGATT
B27: UGAAGGU (DNA:RNA)
RNA: B1 RNA with A25U, A26G, U27A, U29G, U30G, A31U
DNA 1: CAATCTGAATTCCGGTCTCCC
DNA 2: TGGTGGCTACGACGGGATT
B28: GUUGUUC (DNA:RNA)
RNA: B1 RNA with A25G, A26U, A28G, A31C
DNA 1: CAATCTGAATTCCGGTCTCCC
DNA 2: TGGTGGCTACGACGGGATT
B29: UCGGUUC (DNA:RNA)
RNA: B1 RNA with A25U, A26C, U27G, A28G, A31C
DNA 1: CAATCTGAATTCCGGTCTCCC
DNA 2: TGGTGGCTACGACGGGATT
B30: CCACGCG (DNA:RNA)
RNA: GGGAGACCGGAAUUCAGAUUGUCCCCACGCGUUAAAUCCCGUCGUAGCCACCA
DNA 1: CAATCTGAATTCCGGTCTCCC
DNA 2: TGGTGGCTACGACGGGATT
B31: UUCCAUA (DNA:RNA)
RNA: B1 RNA with A25U, A26U, U27C, A28C, U29A
DNA 1: CAATCTGAATTCCGGTCTCCC
DNA 2: TGGTGGCTACGACGGGATT

Target: T1, RBFOX1 RRM
Experiment: EMSA; HiTS-Eq, 1 nM pool, 10 min; buffer printed only for the single-RNA assays: 10 mM Tris pH 7.5, 150 mM NaCl, 3.4 mM EDTA, 0.001% NP-40, 30 C
Conditions: tags: His6 N-terminal (pET28a); label: 5' 32P
How it was run: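 Relative association constants, normalised to the cognate motif, were derived by comparing read counts of each RNA species with those of the control reaction. The RNA sequenced was the free fraction, separated by 8% native PAGE after a 10 min equilibration in 50 µL of 1 nM 5′-radiolabelled RNA (7 randomized nucleotides) with increasing concentrations of purified wild-type or mutant RbFox RRM.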

Binder | binding signal
B1 | 0.000658 KA relative to UGCAUGU
B2 | 0.0101 KA relative to UGCAUGU
B3 | 0.00153 KA relative to UGCAUGU
B4 | 0.0118 KA relative to UGCAUGU
B5 | 0.0103 KA relative to UGCAUGU
B6 | 0.00167 KA relative to UGCAUGU
B7 | 0.0226 KA relative to UGCAUGU
B8 | 0.00732 KA relative to UGCAUGU
B9 | 0.00919 KA relative to UGCAUGU
B10 | 0.00311 KA relative to UGCAUGU
B11 | 0.019 KA relative to UGCAUGU
B12 | 0.0118 KA relative to UGCAUGU
B13 | 0.00974 KA relative to UGCAUGU
B14 | 0.016 KA relative to UGCAUGU
B15 | 0.008 KA relative to UGCAUGU
B16 | 0.0115 KA relative to UGCAUGU

Binder | binding signal
B17 | 0.00904 KA relative to UGCAUGU
B18 | 0.00505 KA relative to UGCAUGU
B19 | 0.0215 KA relative to UGCAUGU
B20 | 0.0117 KA relative to UGCAUGU
B21 | 0.00265 KA relative to UGCAUGU
B22 | 0.00655 KA relative to UGCAUGU
B23 | 0.0193 KA relative to UGCAUGU
B24 | 0.00833 KA relative to UGCAUGU
B25 | 0.00543 KA relative to UGCAUGU
B26 | 0.0112 KA relative to UGCAUGU
B27 | 0.0201 KA relative to UGCAUGU
B28 | 0.0257 KA relative to UGCAUGU
B29 | 0.0173 KA relative to UGCAUGU
B30 | 0.00319 KA relative to UGCAUGU
B31 | 0.00165 KA relative to UGCAUGU
